Measured values taken from PubChem BioAssay AID1460 (National Center for Advancing Translational Sciences (NCATS), 2008).
Out of some 270,000 compounds screened, about 5,800 (2.1%) were called active. This list was built around the results that the source calls inconclusive (neither active nor inactive); the mix of calls is not that of the screen. Calls come from the whole dose curve; as a rule, active = well fitted inhibition curve with a large enough effect; inconclusive = small, poorly fitted or top-dose-only effect; inactive = flat fitted curve, though single readings scatter. Potencies beside an inconclusive call are fits to weak or partial responses and may not hold up.

What follows are compounds tested against Microtubule-associated protein tau (Homo sapiens) (UniProt P10636) (assay: qHTS for Inhibitors of Tau Fibril Formation, Thioflavin T Binding). Conditions: recombinant tau K18 P301L (four-repeat tau fragment), heparin-induced fibrillization, ThT fluorescence; series mostly up to 57.4 µM; activity, negative = inhibition: at the top concentration.
Outline: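 Recombinant human tau K18 fragment […] carrying P301L, 15 uM unlabeled plus 0.24 uM Alexa 594-labeled, was fibrillized with 20 uM heparin in 100 mM sodium acetate pH 7 for 6 hr at 37 C; 30 uM ThT fluorescence read after 1 hr.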
% is set by controls: 0 for no effect and ±100 for the full control effect; potency is the fitted concentration of half-maximal effect; tags give direction and shape of the fitted curve.
Note: nearly all actives have a fitted effect of over 55% in size.

Chain of UniProt P10636 (P10636 whole entry, looked up, the tested form may be a part): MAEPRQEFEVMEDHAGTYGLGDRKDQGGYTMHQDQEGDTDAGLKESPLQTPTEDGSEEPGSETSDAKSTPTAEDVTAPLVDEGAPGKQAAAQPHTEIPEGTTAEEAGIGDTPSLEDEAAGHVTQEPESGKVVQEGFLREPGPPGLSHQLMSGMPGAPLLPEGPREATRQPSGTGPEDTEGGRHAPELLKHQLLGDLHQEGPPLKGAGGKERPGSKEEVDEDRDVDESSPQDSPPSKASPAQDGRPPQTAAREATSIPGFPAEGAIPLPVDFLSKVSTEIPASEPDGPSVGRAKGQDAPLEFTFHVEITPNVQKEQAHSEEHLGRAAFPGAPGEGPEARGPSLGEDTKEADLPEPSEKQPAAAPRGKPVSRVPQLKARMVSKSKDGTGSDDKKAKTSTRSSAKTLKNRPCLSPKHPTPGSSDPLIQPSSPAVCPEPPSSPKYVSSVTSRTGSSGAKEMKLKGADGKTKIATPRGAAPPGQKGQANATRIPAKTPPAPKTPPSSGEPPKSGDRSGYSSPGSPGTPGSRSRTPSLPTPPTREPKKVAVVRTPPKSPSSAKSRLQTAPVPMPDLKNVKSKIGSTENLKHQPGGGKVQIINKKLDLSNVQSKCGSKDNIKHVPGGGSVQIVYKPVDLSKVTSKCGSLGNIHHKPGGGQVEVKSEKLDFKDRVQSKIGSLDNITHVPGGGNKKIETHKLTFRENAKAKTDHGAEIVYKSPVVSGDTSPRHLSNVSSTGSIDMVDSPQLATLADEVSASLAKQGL

| Compound | Potency | activity, negative = inhibition |
| --- | --- | --- |
| O=C(OCc1nnc(-c2ccc(Br)cc2)o1)c1cncc(Br)c1 | inconclusive: 2.82 µM [inhibitor, full curve, poor fit] | – |
| COc1ccc(-c2cn3nc(N4CCCC(C(=O)Nc5cccc(OC)c5)C4)sc3n2)cc1 (stereo not drawn) | inconclusive: 2.82 µM [inhibitor, partial curve] | – |
| Cc1ccc(Nc2sc(C(=O)c3ccccc3)c(N)c2C(=O)Nc2ccc(Cl)cc2)cc1 | inconclusive: 25.1 µM [inhibitor, partial curve] | – |
| CN(/C=C/C(=C/C=[N+](C)c1ccccc1)OCCCS(=O)(=O)[O-])c1ccccc1 | inconclusive: 31.6 µM [inhibitor, single point] | – |
| COC(=O)c1ccc(-c2ccc(Cl)cc2)nc1C | inconclusive: 28.2 µM [inhibitor, single point] | – |
| CCOc1ccccc1C(=O)N(Cc1cc(OC)c(OC)c(OC)c1)c1ccccn1 | – | inactive: -2.43% |
| CC(=C1C(=O)c2ccccc2C1=O)N1CCC(C(N)=O)(N2CCCCC2)CC1 | active: 31.6 µM | – |
| CC(C)c1ccc(NC(=O)CSc2nc(=O)n(Cc3ccccn3)c3c2CCC3)cc1 | – | inactive: -10.3% |
| N#Cc1nc(COc2cccc(Cl)c2)oc1NCCc1ccccc1 | inconclusive: 3.55 µM [inhibitor, partial curve] | – |
| COc1ccc2c(c1OC)C(=O)OC2Nc1nc(-c2ccccc2)cs1 (stereo not drawn) | active: 17.8 µM | – |
| O=C(O)/C=C/C(=O)Nc1ccccc1-c1ccccc1NC(=O)/C=C/C(=O)O | inconclusive: 28.2 µM [inhibitor, partial curve] | – |
| O=C(CP(=O)(c1ccccc1)c1ccccc1)N/N=C/c1cc(Br)cc(Br)c1O | inconclusive: 12.6 µM [inhibitor, partial curve] | – |
| Cc1ccc(OCCn2cc(C#N)c3ccccc32)cc1 | – | inactive: -7.67% |
| Cc1[nH]n(-c2ncc(-c3ccc(Cl)cc3)s2)c(=O)c1C(c1ccc(Cl)cc1)C(C#N)C#N (stereo not drawn) | active: 11.2 µM | – |
| O=C(COc1ccccc1)N1CCc2ccccc21 | inconclusive: 22.4 µM [inhibitor, partial curve, poor fit] | – |
| COc1ccc(C(=O)Nc2nc3n(n2)C(c2ccccc2)C=C(c2ccccc2)N3)cc1 (stereo not drawn) | inconclusive: 10 µM [inhibitor, partial curve] | – |
| COc1ccccc1C/C(N)=N/OC(=O)COc1ccc(C)cc1 | inconclusive: 39.8 µM [inhibitor, single point] | – |
| Cc1ccc(-n2nc3c(N4CCCC(C(=O)NCc5ccc(Cl)cc5)C4)nnc(C)c3c2C)cc1 (stereo not drawn) | – | inactive: -17.6% |
| CCN(CC)CCCN1C=C2C(=O)C(C)(OC(=O)CCC(=O)OC)C(=O)C(Br)=C2C=C1c1ccc(OC)cc1 (stereo not drawn) | – | inactive: -5.32% [at 11.5 µM] |
| O=C(Nc1ccc(N2CCOCC2)cc1)c1cn2ccccc2n1 | inconclusive: 2.24 µM [inhibitor, full curve] | – |
| COc1ccc(-c2nnnn2-c2ccccc2OC)cc1 | – | inactive: -2.1% |
| CCCOc1ccc(C(=O)Nc2ccc3oc(-c4cccc(Cl)c4Cl)nc3c2)cc1 | inconclusive: 0.794 µM [inhibitor, full curve] | – |
| CCOC(=O)c1ccc(NC(=O)CSc2cn(CC(=O)N3CCCC3)c3ccccc23)cc1 | inconclusive: 17.8 µM [inhibitor, single point] | – |

| Compound | Potency | activity, negative = inhibition |
| --- | --- | --- |
| Cc1ccc(-c2nn3c(=O)cc(CN4CCN(C(=O)/C=C/c5ccccc5)CC4)nc3s2)cc1 | inconclusive: 10 µM [inhibitor, partial curve, poor fit] | – |
| CCOC(=O)c1ccc(NC(=O)C(Cc2ccccc2)N2Cc3ccccc3C2=O)cc1 (stereo not drawn) | – | inactive: 0.997% |
| Cc1c(C)c(C)c(CO/N=C/c2cccs2)c(C)c1C | – | inactive: -13% |
| CC(=O)c1ccc(N2CCN(C(=O)CCC(=O)Nc3ccc4nc(N5CCCCC5)cc(C)c4c3)CC2)cc1 | inconclusive: 2.24 µM [inhibitor, full curve] | – |
| COc1ccc(-n2c(-c3ccc(Br)cc3)c[n+]3c2CCC3)cc1 | inconclusive: 31.6 µM [inhibitor, single point] | – |
| CCN(CC)c1ccc2cc(-c3nc(-c4cccs4)no3)c(=O)oc2c1 | inconclusive: 1.12 µM [activator, full curve] | – |
| O=C(NCCN1CCCC1)c1ccccc1Cl | – | inactive: -8% |
| Oc1ccc(/C=N/n2c(-c3ccco3)csc2=Nc2cccnc2)c(O)c1 | inconclusive: 8.91 µM [inhibitor, partial curve] | – |
| CN(C)c1ccc(/C=C/C(O)=C2/C(=O)N(C)C3(C)CC2c2ccccc2O3)cc1 (stereo not drawn) | inconclusive: 8.91 µM [inhibitor, partial curve] | – |
| CCCCCCNC(=O)N[C@@H](C(=O)NCCC[C@H]1CN2C(=NC[C@@H]2Cc2ccccc2)N1CCc1cccc(OC)c1)C(C)C | inconclusive: 39.8 µM [inhibitor, single point] | – |
| Cc1ccccc1Cc1c(C)nc2nc(SCC(=O)N(C)c3ccccc3)nn2c1C | – | inactive: -11.7% |
| Oc1c(Br)cc(Br)cc1C=NCc1ccccc1 | inconclusive: 14.1 µM [inhibitor, partial curve] | – |
| CC1(C)N([O-])C2=C(CCCC2)[N+]1=O | inconclusive: 22.4 µM [inhibitor, single point] | – |
| O=C1/C(=C\c2ccc(-c3ccccc3Cl)o2)SC(=S)N1CC1CCCO1 (stereo not drawn) | inconclusive: 3.16 µM [inhibitor, full curve] | – |
| COc1cccc2cc(C(=O)NCc3ccco3)c(=Nc3ccc(C(=O)O)cc3)oc12 | inconclusive: 31.6 µM [inhibitor, partial curve] | – |
| CCc1nnc(NC(=O)c2cnccn2)s1 | – | inactive: -2.82% |
| Cc1cccc(OCCCn2c(=O)oc3ccc(C)cc32)c1 | – | inactive: -16.8% |
| CC(=O)Nc1ccc(S(=O)(=O)Oc2ccc(/C=C3\SC(N)=NC3=O)cc2)cc1 | – | inactive: -16.6% |
| Cc1sc2ncn(CC(=O)Nc3cccc(C(F)(F)F)c3)c(=O)c2c1S(=O)(=O)N1CCN(C)CC1 | – | inactive: -5.54% |
| CCOC(=O)C(NC(C)=O)(N1CCc2ccccc2C1)C(F)(F)F (stereo not drawn) | active: 25.1 µM | – |
| NNC(=O)c1ccc(N2CCCCCC2)c([N+](=O)[O-])c1 | inconclusive: 31.6 µM [inhibitor, single point] | – |
| CSc1cccc(NS(=O)(=O)c2cccc3nsnc23)c1 | – | inactive: -12% |
| NC(=O)CC(NC(=O)Cc1ccc(Br)cc1)c1ccc(NC2CCCC2)c([N+](=O)[O-])c1 (stereo not drawn) | inconclusive: 5.01 µM [inhibitor, partial curve, poor fit] | – |

| Compound | Potency | activity, negative = inhibition |
| --- | --- | --- |
| CC(=O)c1ccc(N2CCN(Cc3nc(Cc4ccccc4)no3)CC2)cc1 | inconclusive: 17.8 µM [inhibitor, partial curve, poor fit] | – |
| Cc1c(NS(=O)(=O)c2ccc(N3CCCCC3)c([N+](=O)[O-])c2)c(=O)n(-c2ccccc2)n1C | inconclusive: 25.1 µM [inhibitor, single point] | – |
| CCOC(=O)/C(C#N)=C1\CCCN1CC(N)=S | inconclusive: 25.1 µM [inhibitor, single point] | – |
| CCn1cc(CN2CCc3c([nH]c4ccccc34)C2c2cccc(OC)c2)c(C)n1 (stereo not drawn) | inconclusive: 39.8 µM [inhibitor, single point] | – |
| CCOc1cccc2sc(N(CCCN(C)C)C(=O)c3ccc(S(=O)(=O)N(C)c4ccccc4)cc3)nc12 | inconclusive: 17.8 µM [inhibitor, partial curve] | – |
| Nc1sc2c(c1C(=O)NC1CCS(=O)(=O)C1)CCCC2 (stereo not drawn) | active: 31.6 µM | – |
| COc1ccc2c(c1)cc1c(=O)n(CC(=O)NC(C)C)nc(C)n12 | – | inactive: 1.71% |
| Cc1ccc(C(=O)Oc2coc(CSc3nnc(NC(=O)C4CC4)s3)cc2=O)cc1C | inconclusive: 3.55 µM [inhibitor, full curve] | – |
| CN1/C(=C\C=C(C#N)C#N)C(C)(C)c2ccccc21 | – | inactive: 8.09% |
| COc1ccc2cc(CN(Cc3ccco3)Cc3nnnn3C3CCCCC3)c(=O)[nH]c2c1 | inconclusive: 8.91 µM [inhibitor, partial curve, poor fit] | – |
| Cc1ccc(NC(=O)C(=Cc2ccc(C(=O)O)cc2)C(=O)Nc2ccc(C)cc2C)c(C)c1 | inconclusive: 4.47 µM [inhibitor, partial curve] | – |
| Cc1nc2ccc(NC(=O)c3sccc3C)cc2s1 | inconclusive: 7.08 µM [inhibitor, partial curve] | – |
| Cc1ccc(S(=O)(=O)N2CCCc3cc(NS(=O)(=O)c4cccc(Cl)c4)ccc32)cc1 | – | inactive: 4.54% |
| O=S(=O)(c1cc(Cl)cc(Cl)c1)N1CCCC1c1nc2ccccc2s1 (stereo not drawn) | – | inactive: -9.12% |
| O=C(CCN1C(=O)/C(=C/C=C/c2ccccc2)SC1=S)Nc1ccccn1 | inconclusive: 15.8 µM [inhibitor, partial curve] | – |
| COc1cc(OC)c(C2CC(=O)N3CN(c4ccc(C)cc4)CSC3=C2C#N)cc1OC (stereo not drawn) | active: 28.2 µM | – |
| COc1ccccc1NC(=O)c1[nH]c(C)c(C(C)=O)c1C | inconclusive: 7.94 µM [inhibitor, partial curve] | – |
| CC1CCN(S(=O)(=O)c2ccc3c(c2)c(=O)c(C(=O)NCCc2ccccc2)cn3C)CC1 | – | inactive: -0.652% |
| CCOC(=O)N1CCN(c2cc(NCCC(=O)O)c3c4c(onc24)-c2ccccc2C3=O)CC1 | active: 11.2 µM | – |
| CCC(=O)NC(=S)Nc1ccc(NC(=O)COc2ccccc2)cc1 | inconclusive: 4.47 µM [inhibitor, single point] | – |
| CCc1c(C)[nH]n(-c2nc(-c3ccccc3)cs2)c1=O | inconclusive: 12.6 µM [inhibitor, partial curve, poor fit] | – |
| Cc1ccccc1Nc1cc(C)c2c(O)cccc2n1 | inconclusive: 12.6 µM [inhibitor, partial curve, poor fit] | – |
